Results from the supplement of paper PMC10037445.
Several values for one entry are separate records, joined by “and”; a condition that tells them apart may be missing. Identical values can stand only once. In all, about 2,900 compounds were measured (“NF-kB SEAP reporter activity, fold change vs agonist alone”: median about 0.99, highest 2% from about 2.6 on). The list shows a part of the results.

Legend:
[1] = test system: RAW-Dual; assay: NF-kB SEAP reporter activity, fold change vs agonist alone; higher = enhanced NF-kB activity
How it was run: (§1)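 Supernatant from RAW-Dual macrophages was read after 20 hours for IRF by QuantiLuc luminescence and for NF-κB by QuantiBlue absorbance at 620 nm. The cells (50,000 cells/well in DMEM, 384-well plates, 37 °C, 5% CO2) had received 50 nL of library stock by pin tool and, 1 h later, a PRR agonist. Reporter activity is expressed relative to agonist-alone wells as fold change, and wells were flagged cytotoxic if IncuCyte confluency was under 70% of agonist controls in both mask sets.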

[2] = test system: RAW-Dual; assay: NF-kB SEAP reporter activity, fold change vs agonist alone; cytotoxicity flag (confluency mask): not cytotoxic; higher = enhanced NF-kB activity
How it was run: as §1

[3] = test system: RAW-Dual; assay: NF-kB SEAP reporter activity, fold change vs agonist alone; cytotoxicity flag (confluency mask): cytotoxic (confluency <70% of control); higher = enhanced NF-kB activity
How it was run: as §1

[4] = agonist: ODN 1826 (TLR9) 0.5 ug/mL
[5] = agonist: Pam2CSK4 (TLR2/6) 0.1 ug/mL
[6] = agonist: Pam3CSK4 (TLR2/1) 0.1 ug/mL
[7] = library stock concentration (final ~1000-fold dilution): 10 mM, cytotoxicity flag (confluency mask): not cytotoxic, agonist: Imiquimod (TLR7) […]
[8] = library stock concentration (final ~1000-fold dilution): 10 mM, cytotoxicity flag (confluency mask): not cytotoxic, agonist: MPLA (TLR4) […]
[9] = library stock concentration (final ~1000-fold dilution): 10 mM, cytotoxicity flag (confluency mask): cytotoxic (confluency <70% of control), agonist: Imiquimod (TLR7) […]
[10] = library stock concentration (final ~1000-fold dilution): 10 mM, cytotoxicity flag (confluency mask): cytotoxic (confluency <70% of control), agonist: MPLA (TLR4) […]

SMILES: COc1cc2c(cc1OC)C(=O)C(CC1CCN(Cc3ccccc3)CC1)C2.Cl (configuration not stated)
- NF-kB SEAP reporter activity ([1]; library stock concentration (final ~1000-fold dilution): 10 mM water, cytotoxicity flag (confluency mask): not cytotoxic, agonist: Imiquimod (TLR7) […]): 0.84
- NF-kB SEAP reporter activity ([1]; library stock concentration (final ~1000-fold dilution): 10 mM water, cytotoxicity flag (confluency mask): not cytotoxic, agonist: MPLA (TLR4) […]): 1.08

SMILES: COc1cc2c(cc1OC)C(=O)C(CC1CCN(Cc3ccccc3)CC1)C2.Cl (configuration not stated) (library stock concentration (final ~1000-fold dilution): 10 mM water)
- NF-kB SEAP reporter activity ([2]; agonist: LPS (TLR4) 0.1 ug/mL): 1.35
- NF-kB SEAP reporter activity [2, 4]: 1.16
- NF-kB SEAP reporter activity [2, 5]: 1.28
- NF-kB SEAP reporter activity [2, 6]: 1.29

SMILES: CC(Oc1ccc2c(c1)OCCn1cc(-c3ncnn3C(C)C)nc1-2)C(N)=O (configuration not stated)
- NF-kB SEAP reporter activity [1, 7]: 0.585
- NF-kB SEAP reporter activity [1, 8]: 1.4

SMILES: CC(Oc1ccc2c(c1)OCCn1cc(-c3ncnn3C(C)C)nc1-2)C(N)=O (configuration not stated) (library stock concentration (final ~1000-fold dilution): 10 mM)
- NF-kB SEAP reporter activity ([2]; agonist: LPS (TLR4) 0.1 ug/mL): 2.07
- NF-kB SEAP reporter activity [2, 4]: 1.1
- NF-kB SEAP reporter activity [2, 5]: 0.894
- NF-kB SEAP reporter activity [2, 6]: 1.41

SMILES: O=C(O)c1cc(O)c2c(c1)C(=O)c1cccc(O)c1C2=O (library stock concentration (final ~1000-fold dilution): 10 mM)
- NF-kB SEAP reporter activity ([2]; agonist: LPS (TLR4) 0.1 ug/mL): 1.11 and 1.46
- NF-kB SEAP reporter activity [2, 4]: 1.06 and 1.02
- NF-kB SEAP reporter activity [2, 5]: 1.03 and 1.27
- NF-kB SEAP reporter activity [2, 6]: 1.34 and 1.23

SMILES: Cc1ccc(Nc2c(F)cccc2Cl)c(CC(=O)O)c1
- NF-kB SEAP reporter activity [1, 7]: 0.731
- NF-kB SEAP reporter activity [1, 8]: 0.741

SMILES: Cc1ccc(Nc2c(F)cccc2Cl)c(CC(=O)O)c1 (library stock concentration (final ~1000-fold dilution): 10 mM)
- NF-kB SEAP reporter activity ([2]; agonist: LPS (TLR4) 0.1 ug/mL): 1.27
- NF-kB SEAP reporter activity [2, 4]: 0.639
- NF-kB SEAP reporter activity [2, 5]: 1.1
- NF-kB SEAP reporter activity [2, 6]: 0.961

SMILES: Cl.NC1=NCC2c3ccccc3Cc3ccccc3N12 (configuration not stated) (library stock concentration (final ~1000-fold dilution): 10 mM)
- NF-kB SEAP reporter activity ([2]; agonist: LPS (TLR4) 0.1 ug/mL): 1.08
- NF-kB SEAP reporter activity [2, 4]: 0.869
- NF-kB SEAP reporter activity [2, 5]: 0.832
- NF-kB SEAP reporter activity [2, 6]: 0.894

SMILES: Cl.NC1=NCC2c3ccccc3Cc3ccccc3N12 (configuration not stated)
- NF-kB SEAP reporter activity [1, 7]: 0.939
- NF-kB SEAP reporter activity [1, 8]: 1.02

SMILES: O=c1cc(-c2cccc3c2Sc2ccccc2S3)oc(N2CCOCC2)c1 (library stock concentration (final ~1000-fold dilution): 10 mM)
- NF-kB SEAP reporter activity ([2]; agonist: LPS (TLR4) 0.1 ug/mL): 2.66
- NF-kB SEAP reporter activity [2, 4]: 0.715
- NF-kB SEAP reporter activity [2, 5]: 0.748
- NF-kB SEAP reporter activity [2, 6]: 0.948

SMILES: O=c1cc(-c2cccc3c2Sc2ccccc2S3)oc(N2CCOCC2)c1
- NF-kB SEAP reporter activity [1, 7]: 1.04
- NF-kB SEAP reporter activity [1, 8]: 2.17

SMILES: CNCC(O)C(O)C(O)C(O)CO.Cc1c(Nc2ncccc2C(=O)O)cccc1C(F)(F)F (library stock concentration (final ~1000-fold dilution): 10 mM)
- NF-kB SEAP reporter activity ([2]; agonist: LPS (TLR4) 0.1 ug/mL): 0.803
- NF-kB SEAP reporter activity [2, 4]: 1.1
- NF-kB SEAP reporter activity [2, 5]: 0.664
- NF-kB SEAP reporter activity [2, 6]: 1.04

SMILES: CNCC(O)C(O)C(O)C(O)CO.Cc1c(Nc2ncccc2C(=O)O)cccc1C(F)(F)F
- NF-kB SEAP reporter activity [1, 7]: 1
- NF-kB SEAP reporter activity [1, 8]: 0.888

SMILES: CC(C)(CNC(=O)c1cccc(-c2noc(C(F)(F)F)n2)c1)c1coc(-c2ccccc2)n1
- NF-kB SEAP reporter activity [1, 7]: 0.959
- NF-kB SEAP reporter activity [1, 8]: 1.09

SMILES: CC(C)(CNC(=O)c1cccc(-c2noc(C(F)(F)F)n2)c1)c1coc(-c2ccccc2)n1 (library stock concentration (final ~1000-fold dilution): 10 mM)
- NF-kB SEAP reporter activity ([2]; agonist: LPS (TLR4) 0.1 ug/mL): 1.03
- NF-kB SEAP reporter activity [2, 4]: 1.03
- NF-kB SEAP reporter activity [2, 5]: 0.625
- NF-kB SEAP reporter activity [2, 6]: 0.745

SMILES: CCNC(=O)Nc1ccc(-c2nc(N3CCOCC3C)c3c(n2)C(C)(C)S(=O)(=O)C3)cc1 (configuration not stated) (library stock concentration (final ~1000-fold dilution): 10 mM)
- NF-kB SEAP reporter activity ([2]; agonist: LPS (TLR4) 0.1 ug/mL): 1.01
- NF-kB SEAP reporter activity [2, 4]: 0.686
- NF-kB SEAP reporter activity [2, 5]: 0.367
- NF-kB SEAP reporter activity [2, 6]: 0.583

SMILES: CCNC(=O)Nc1ccc(-c2nc(N3CCOCC3C)c3c(n2)C(C)(C)S(=O)(=O)C3)cc1 (configuration not stated)
- NF-kB SEAP reporter activity [1, 7]: 0.921
- NF-kB SEAP reporter activity [1, 8]: 1.46

SMILES: COc1cc(-c2cn(C)c(=O)c3cnccc23)c(OC)cc1CN(C)C (library stock concentration (final ~1000-fold dilution): 2 mM)
- NF-kB SEAP reporter activity ([2]; agonist: LPS (TLR4) 0.1 ug/mL): 0.897
- NF-kB SEAP reporter activity [2, 4]: 0.993
- NF-kB SEAP reporter activity [2, 5]: 1.07
- NF-kB SEAP reporter activity [2, 6]: 0.995

SMILES: COc1cc(-c2cn(C)c(=O)c3cnccc23)c(OC)cc1CN(C)C
- NF-kB SEAP reporter activity ([1]; library stock concentration (final ~1000-fold dilution): 2 mM, cytotoxicity flag (confluency mask): not cytotoxic, agonist: Imiquimod (TLR7) […]): 0.897
- NF-kB SEAP reporter activity ([1]; library stock concentration (final ~1000-fold dilution): 2 mM, cytotoxicity flag (confluency mask): not cytotoxic, agonist: MPLA (TLR4) […]): 1.05

SMILES: Cc1cc(C(=O)NOCCO)c(Nc2ccc(I)cc2F)n(C)c1=O
- NF-kB SEAP reporter activity [1, 7]: 0.211
- NF-kB SEAP reporter activity [1, 8]: 0.206

SMILES: Cc1cc(C(=O)NOCCO)c(Nc2ccc(I)cc2F)n(C)c1=O (library stock concentration (final ~1000-fold dilution): 10 mM)
- NF-kB SEAP reporter activity ([2]; agonist: LPS (TLR4) 0.1 ug/mL): 0.186
- NF-kB SEAP reporter activity [2, 4]: 0.28
- NF-kB SEAP reporter activity [2, 5]: 0.0869
- NF-kB SEAP reporter activity [2, 6]: 0.189

SMILES: Cc1nc(Nc2cnn(C3CCNCC3)c2)nc2c1N(C)C(=O)c1cc3ccccc3cc1N2C
- NF-kB SEAP reporter activity [1, 9]: 1.56
- NF-kB SEAP reporter activity [1, 10]: 2.88

SMILES: Cc1nc(Nc2cnn(C3CCNCC3)c2)nc2c1N(C)C(=O)c1cc3ccccc3cc1N2C (library stock concentration (final ~1000-fold dilution): 10 mM)
- NF-kB SEAP reporter activity ([3]; agonist: LPS (TLR4) 0.1 ug/mL): 3.03
- NF-kB SEAP reporter activity [3, 4]: 0.387
- NF-kB SEAP reporter activity [3, 5]: 1.11
- NF-kB SEAP reporter activity [3, 6]: 2.25

SMILES: NC(=O)c1cnc(NCCc2ccc(O)c(Cl)c2)nc1NCc1ccccc1 (library stock concentration (final ~1000-fold dilution): 10 mM)
- NF-kB SEAP reporter activity ([3]; agonist: LPS (TLR4) 0.1 ug/mL): 0.411
- NF-kB SEAP reporter activity [3, 4]: 0.171
- NF-kB SEAP reporter activity [3, 5]: 0.0838
- NF-kB SEAP reporter activity [3, 6]: 0.154

SMILES: NC(=O)c1cnc(NCCc2ccc(O)c(Cl)c2)nc1NCc1ccccc1
- NF-kB SEAP reporter activity [1, 9]: 0.144
- NF-kB SEAP reporter activity [1, 10]: 0.251

SMILES: Oc1ncnc2[nH]ncc12 (library stock concentration (final ~1000-fold dilution): 10 mM)
- NF-kB SEAP reporter activity ([2]; agonist: LPS (TLR4) 0.1 ug/mL): 1.21
- NF-kB SEAP reporter activity [2, 4]: 1.03
- NF-kB SEAP reporter activity [2, 5]: 1.1
- NF-kB SEAP reporter activity [2, 6]: 1.17

SMILES: Oc1ncnc2[nH]ncc12
- NF-kB SEAP reporter activity [1, 7]: 0.893
- NF-kB SEAP reporter activity [1, 8]: 1.04
